For the data set, the system named is ATP. Put plainly: switch fluorescence ratio, 500 uM ATP over buffer (Cy3 cluster intensity, sum of 5 cycles each) (fold (ratio)); higher = stronger signal-on switching upon ATP binding; sequences stand for … in TCGTCGGCAGCGTCAGATGTGTATAAGAGACAGTTTTTTTTTTTTTTTTTTTTTTTTT…TC. The note with it: aptamer strand: ATP DNA aptamer (quencher-CACCTGGGGGAGTATTGCGGAGGAAGG + anchor), 100 nM annealed; ATP concentration: 500 uM; one replicate. An outline of the steps: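 Switching-strand clusters labelled with Cy3 on a modified Illumina MiSeq flow-cell were annealed to 100 nM quencher-labelled ATP aptamer, imaged in selection buffer, and re-imaged after 15 min with 500 uM ATP at 22 °C. This was done over five cycles with NaOH stripping and re-annealing in between. The fluorescence ratio is summed target-cycle over summed buffer-cycle Cy3 intensity per cluster, averaged per switch-domain sequence, excluding clusters outside 100-1000 RFU.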

Values marked as one replicate rest on one cluster of the flow cell; about a third of the high ones do not repeat.
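Further: ATP exposure 15 min at 22 °C before imaging.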

With TAAGGATAAG, the switch fluorescence ratio came to 0.972.

CAGGCTGAAC: the switch fluorescence ratio was found to be 0.948.

On to GCTACGGAGT, for which the switch fluorescence ratio was found to be 1.06.

For CAATTCATT, the switch fluorescence ratio worked out at 0.981.

For the sequence CGGTCTAAGG, the switch fluorescence ratio was 0.972.

On to GTCAGGGAAG, for which the switch fluorescence ratio was 0.997.

On to ACGGCCGATT, for which the switch fluorescence ratio was determined as 1.03.

With AGGCATCCGT, the switch fluorescence ratio was 0.977.

With TGAAATATAT, the switch fluorescence ratio was found to be 1.01.

With CCGTGCCAA, the switch fluorescence ratio was found to be 3.89.

GGATTGAAAT: the switch fluorescence ratio turned out to be 0.959.

As for CCCGTTGAGG, the switch fluorescence ratio was 0.993.

For TCGCTCATCG, the switch fluorescence ratio was 0.988.

As for CACTAAAATT, the switch fluorescence ratio is 0.967.

TTCGGTCGCA: the switch fluorescence ratio turned out to be 1.04.

Turning to GTGGATCGAC, the switch fluorescence ratio came to 0.945.

Regarding CTCATAAAA, the switch fluorescence ratio is 1.01.

In the case of CTTTGAAGCC, the switch fluorescence ratio is 1.36.

With TCCGCATTAG, the switch fluorescence ratio worked out at 2.44.

For the sequence GCGTATGAAA, the switch fluorescence ratio is 0.987.

As for ATAGGTTAAC, the switch fluorescence ratio is 0.957.

Turning to CGAATAAGGG, the switch fluorescence ratio was determined as 0.983.

For the sequence GAACATAGGG, the switch fluorescence ratio was 0.988.

As for ACGTTATATC, the switch fluorescence ratio came to 1.24.

As to TATCCTTGTA, the switch fluorescence ratio is 1.05.

With TACTAAGGCG, the switch fluorescence ratio was found to be 1.03.

TCATAGGCAT: the switch fluorescence ratio came to 1.01.

Consider GGGGAGGGA, for which the switch fluorescence ratio was determined as 1.01.

On to CTTGGTTTTA, for which the switch fluorescence ratio came out at 1.28.

With AATCTCACT, the switch fluorescence ratio was determined as 1.04.

With GCAGGTTTGT, the switch fluorescence ratio worked out at 1.

GGTATCAGAG: the switch fluorescence ratio came to 1.02.

TTTTAGCGCG: the switch fluorescence ratio came out at 0.972.

Regarding CGAGAAACAG, the switch fluorescence ratio was found to be 0.97.

Consider CTGAGGTGAG, for which the switch fluorescence ratio was determined as 0.994.

Regarding GCTGGTTTAT, the switch fluorescence ratio was 0.978.

Consider CCGCTTCGTC, for which the switch fluorescence ratio amounted to 1.84.

TCGGTCCGTG: the switch fluorescence ratio was 0.967.

Consider ATTCGGATCC, for which the switch fluorescence ratio worked out at 3.37.

Take CATAGGAATC: the switch fluorescence ratio was 1.08.

For ACGGCTTGAC, the switch fluorescence ratio came to 1.05.

With GTTTTTTAG, the switch fluorescence ratio is 1.02.

TCTTAAACCT: the switch fluorescence ratio was 2.59.

On to GTGAAAACAG, for which the switch fluorescence ratio came out at 1.06.

On to ATCAGAGGAG, for which the switch fluorescence ratio worked out at 0.989.

On to CCAATCCTAA, for which the switch fluorescence ratio was 1.01.

In the case of AGTTGTGGGA, the switch fluorescence ratio stood at 1.04.

Take TTTTAGTATC: the switch fluorescence ratio is 1.41.

Turning to TTGAAGCACC, the switch fluorescence ratio turned out to be 1.35.

On to ACAATGCGGA, for which the switch fluorescence ratio is 1.07.

With AGATCCTACA, the switch fluorescence ratio worked out at 0.964.

Consider TTGGAGCGTT, for which the switch fluorescence ratio is 1.09.

For the sequence CTCGACTGAA, the switch fluorescence ratio is 1.01.

CCTAATTTTC: the switch fluorescence ratio amounted to 0.973.

For the sequence GACTTACAGG, the switch fluorescence ratio was 1.07.

Turning to CAGGAGCCAC, the switch fluorescence ratio is 2.11.

Take TTCGTCAATT: the switch fluorescence ratio was 1.03.

For CACTAACTGA, the switch fluorescence ratio was determined as 1.12.

In the case of TGATGAAGCT, the switch fluorescence ratio was 1.01.

As to CAGTGAGGGC, the switch fluorescence ratio came out at 0.988.

Take TTGTTGACAG: the switch fluorescence ratio amounted to 0.939.

As for GAATATTAGC, the switch fluorescence ratio is 0.996.

Take GACCCCGGTC: the switch fluorescence ratio stood at 0.992.

For ACGTAGGTAT, the switch fluorescence ratio is 1.1.

In the case of CAGAGGACGT, the switch fluorescence ratio was found to be 0.966.

In the case of CGGGGGAAT, the switch fluorescence ratio came out at 0.996.

As for AACGTCAGAA, the switch fluorescence ratio came out at 1.05.

Turning to CACGGTTGGT, the switch fluorescence ratio came out at 0.995.

With GTGCGCAAGG, the switch fluorescence ratio was determined as 1.19.

In the case of ACGATCTGGA, the switch fluorescence ratio turned out to be 0.947.

With CGATATACCA, the switch fluorescence ratio was found to be 1.18.

As for ATGCAACACT, the switch fluorescence ratio is 1.21.

For ACTATACTTG, the switch fluorescence ratio worked out at 1.15.

Turning to CACCTTTTAC, the switch fluorescence ratio is 1.16.

With GTTAGGACGG, the switch fluorescence ratio turned out to be 0.972.

Consider GCGTCACGGA, for which the switch fluorescence ratio was 1.02.

In the case of CCGTTTTACT, the switch fluorescence ratio turned out to be 2.64.

Turning to GTATATCGGT, the switch fluorescence ratio came out at 0.979.

TTTGCAAAAT: the switch fluorescence ratio worked out at 1.2.

ATCATTGTTG: the switch fluorescence ratio stood at 1.01.

For GGATTTGTTT, the switch fluorescence ratio was found to be 0.977.

Turning to ACTTTAAAGG, the switch fluorescence ratio was determined as 1.4.

For GATCTTGGCT, the switch fluorescence ratio worked out at 0.999.

Turning to GTTAGGATTC, the switch fluorescence ratio came out at 1.

Take AATTTAGCTT: the switch fluorescence ratio was 1.05.

As for TTATACGTGG, the switch fluorescence ratio was determined as 1.07.

Consider ATAATCTTGC, for which the switch fluorescence ratio is 1.25.

Regarding TCGGCTAGTT, the switch fluorescence ratio came to 1.01.

Take AATAATGGGA: the switch fluorescence ratio came to 0.93.

Regarding GACGGCCATT, the switch fluorescence ratio worked out at 1.12.

Regarding GGGTATAGA, the switch fluorescence ratio amounted to 1.01.

As to TTTAGACTAA, the switch fluorescence ratio was 0.978.

With ATAAGTCAGT, the switch fluorescence ratio amounted to 0.96.

Turning to TTTTCCCTGA, the switch fluorescence ratio stood at 0.994.

Consider GAAACCAGTT, for which the switch fluorescence ratio is 1.07.

With GGCGCTGGGG, the switch fluorescence ratio is 0.981.

Turning to CCTACGGGAA, the switch fluorescence ratio turned out to be 1.13.

Turning to GCGATTAGCT, the switch fluorescence ratio came out at 1.04.

On to CTGTGTGATC, for which the switch fluorescence ratio was 0.976.

Consider AACATGAGAA, for which the switch fluorescence ratio is 0.965.

Take TTAGTTTGTA: the switch fluorescence ratio is 1.01.

Regarding GCGTTTGCCA, the switch fluorescence ratio is 0.973.

In the case of CAGGGGACGG, the switch fluorescence ratio worked out at 1.06.

As to AAAACTGGAA, the switch fluorescence ratio came out at 1.01.

As for GGCTTATGGG, the switch fluorescence ratio was 1.01.

TCTGGGAGAG: the switch fluorescence ratio came to 1.2.

Turning to TTATTGATTA, the switch fluorescence ratio was found to be 1.01.

As for ACAGCCCAAA, the switch fluorescence ratio turned out to be 0.989.

For TGAGCTGTCC, the switch fluorescence ratio was 1.07.

Turning to GCGTTAGCGA, the switch fluorescence ratio came to 0.954.

In the case of GGACGACGTT, the switch fluorescence ratio is 0.973.

On to GGTCTATATT, for which the switch fluorescence ratio came to 0.945.

As for TTTTATTAGG, the switch fluorescence ratio stood at 0.95.

Regarding CGTGTGACAC, the switch fluorescence ratio worked out at 1.03.

With TTGGCCAGGC, the switch fluorescence ratio amounted to 0.992.

With GCGTGATGCG, the switch fluorescence ratio turned out to be 1.02.

For the sequence CAGCTAGTGC, the switch fluorescence ratio worked out at 1.12.

Regarding AGTGCTGTCA, the switch fluorescence ratio amounted to 0.976.

For AGGGTCTGCA, the switch fluorescence ratio is 1.02.

Take TTTCATTCAG: the switch fluorescence ratio is 1.01.

The record behind these values is the supplement of paper PMC10126150.
